Measurements taken from PMC4336329 (PLoS ONE, 2015).
The whole screen tested about 310,000 compounds, of which about 14,000 (4.5%) showed an effect of 50% or more. Effects have a minus sign here. The list shows a part of the results.

What follows are molecules tested against human ether-à-go-go-related gene (hERG) potassium channel (human, UniProt Q12809) (assay: primary screen, population patch clamp on CHO cells stably expressing hERG).
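Also: peak tail current of the secondary pulse compared with the same well before compound.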

human ether-à-go-go-related gene (hERG) potassium channel, sequence (Q12809 whole entry, looked up): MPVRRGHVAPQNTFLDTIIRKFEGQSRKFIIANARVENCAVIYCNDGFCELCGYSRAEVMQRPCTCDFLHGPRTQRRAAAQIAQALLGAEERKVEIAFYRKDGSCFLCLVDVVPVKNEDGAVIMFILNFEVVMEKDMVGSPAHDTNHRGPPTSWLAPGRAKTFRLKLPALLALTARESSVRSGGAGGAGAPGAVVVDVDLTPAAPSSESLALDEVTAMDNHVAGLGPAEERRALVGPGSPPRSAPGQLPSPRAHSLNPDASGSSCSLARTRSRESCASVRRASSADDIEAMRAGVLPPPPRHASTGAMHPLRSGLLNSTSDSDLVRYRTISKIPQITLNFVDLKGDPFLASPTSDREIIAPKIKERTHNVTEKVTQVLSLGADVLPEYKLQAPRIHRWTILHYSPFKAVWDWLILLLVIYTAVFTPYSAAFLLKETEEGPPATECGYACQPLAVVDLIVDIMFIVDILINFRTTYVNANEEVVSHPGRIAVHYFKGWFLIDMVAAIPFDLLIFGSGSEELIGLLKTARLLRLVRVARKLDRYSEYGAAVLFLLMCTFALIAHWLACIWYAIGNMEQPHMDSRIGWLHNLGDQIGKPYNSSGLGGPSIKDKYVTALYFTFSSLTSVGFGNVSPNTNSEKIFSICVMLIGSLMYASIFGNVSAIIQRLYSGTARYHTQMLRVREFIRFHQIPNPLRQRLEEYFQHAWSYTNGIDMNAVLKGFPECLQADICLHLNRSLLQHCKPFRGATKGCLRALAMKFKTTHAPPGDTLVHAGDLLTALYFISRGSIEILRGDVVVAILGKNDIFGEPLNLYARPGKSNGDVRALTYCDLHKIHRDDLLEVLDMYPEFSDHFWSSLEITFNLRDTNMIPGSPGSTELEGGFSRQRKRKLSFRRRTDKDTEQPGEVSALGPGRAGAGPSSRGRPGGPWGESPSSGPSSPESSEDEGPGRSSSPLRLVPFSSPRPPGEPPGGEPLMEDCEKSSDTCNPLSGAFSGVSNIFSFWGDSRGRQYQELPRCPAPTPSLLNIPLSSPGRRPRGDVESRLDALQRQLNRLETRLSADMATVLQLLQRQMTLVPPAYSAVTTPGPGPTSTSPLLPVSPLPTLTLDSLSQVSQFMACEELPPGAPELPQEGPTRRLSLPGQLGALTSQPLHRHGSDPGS

Compound | hERG current change (%, negative = inhibition) at 10uM [%]
CN(C)S(=O)(=O)c1cccc(NC(=O)CSc2nc3ccccc3n2-c2ccccc2)c1 | 5.62
Cc1ccc(S(=O)(=O)NC2CCCCC2)c(C)c1NS(C)(=O)=O | 15.2
CC(C)C(=O)Nc1ccc(NC(=S)NC(=O)c2ccccc2F)cc1 | -4.84
CSc1nnc([C@@H](N)Cc2ccccc2)o1.Cl | -14.5
O=[N+]([O-])c1cccc(/C=N/Nc2ccccn2)c1 | 10.3
CC(=O)Nc1ccc(NC(=O)c2ccccc2CC[N+](=O)[O-])cc1 | 3.07
Cc1nn(C)c(Cl)c1NC(=O)OCc1ccc(F)cc1 | 1.51
Cc1ccc(C)c(C(C)NC(=O)C2CCCO2)c1 (centres unmarked) | 17.6
CCOc1ccc(C(=O)NN2C(=O)C3C4C=CC(O4)C3C2=O)cc1 (centres unmarked) | -14
C/C(CC(=O)Nc1ccc(C)c(Cl)c1)=N\NC(=O)c1cccc(O)c1 | 4.04
COCCNC(=S)NNc1ccccc1[N+](=O)[O-] | 21.5
CCOC(=O)Cc1nn(Cc2ccccc2)c(=O)c2ccccc12 | -25.7
CSc1nc(N)n2nc(-c3ccccc3)cc2n1 | 9.91
O=C(N[C@H](C(=O)O)c1ccccc1)C1CCC(Cn2cnc3ccccc3c2=O)CC1 (some centres unmarked) | 5.75
CCOc1ccccc1NC(=O)c1cc(SC)ccc1Cl | 50.4
COc1ccc(/C=N\NC(=O)c2ccccc2Cl)cc1COc1c(F)c(F)c(F)c(F)c1F | 11.6
Cc1ccc(C(=O)OCC(=O)N(C)C2CCS(=O)(=O)C2)cc1[N+](=O)[O-] (centres unmarked) | 5.04
N#CCCn1nnc(-c2ccccc2F)n1 | 28.4
CCOc1cc2[nH]c(=O)n(Cc3cccc(OC)c3)c(=O)c2cc1OCC | 10.4

Compound | hERG current change (%, negative = inhibition) at 10uM [%]
COc1ccc(CN(C)C(=O)Cc2c[nH]c3ccccc23)cc1 | 13.5
CCCCSc1nnc(-c2cc3c(C(F)(F)F)nn(C)c3s2)n1C | -6.8
C/C(=N\NC(=O)c1ccncc1)c1c(O)n(-c2ccccc2)c(=O)[nH]c1=O | 7.65
O=C(c1cccc(S(=O)(=O)Nc2ccccc2Cl)c1)N1CCC1 | -0.443
CCn1c(SCC(=O)Nc2cc(C)on2)nnc1-c1cccs1 | -10.6
O=C(NNC(=O)c1ccc(F)cc1)c1ccncc1 | 16
O=C(NCC1CCCO1)c1ccc(NS(=O)(=O)c2ccccc2)cc1 (centres unmarked) | 18.4
CCCCc1nc(Cl)c(C#N)c2c1CSC(C)(C)C2 | -13.1
O=c1c2ccccc2c(-c2ccccc2)nn1-c1ccccc1 | 2.58
CN(C)c1ccc(/C=N/OC(=O)Nc2ccccc2Cl)cc1 | 1.57
O=C(Cc1n[nH]c(=O)c2ccccc12)Nc1cccc(S(=O)(=O)N2CCCCCC2)c1 | -57.8
CCOC(=O)c1cnc2ccc(OCC)cc2c1NCc1ccccc1OC | 4.45
O=C(CSc1nnc(CNC(=O)c2ccco2)o1)c1ccccc1 | 4.14
COc1ccc(-c2csc(NC(=O)CSc3n[nH]c(C)n3)n2)cc1 | -4.9
COC(=O)CC1=NN(c2ccccc2)C(=O)C1 | 9.08
Cc1ccc(S(=O)(=O)N2CCCN(C)CC2)cc1.Cl | -4.52
COc1ccc(C2NN=C(c3c[nH]c4ccccc34)C2O)cc1 (centres unmarked) | 14.6
COc1cc(CNCCc2c[nH]c3ccccc23)ccc1OCc1ccc(F)cc1.Cl | -48.4
C[C@@H](NC(=O)[C@@H]1Cc2ccccc2CN1C(=O)OC(C)(C)C)C(=O)NC1CCCCC1 | 4.59

Compound | hERG current change (%, negative = inhibition) at 10uM [%]
Cc1cccc(NCCNc2cccc(C)c2)c1 | -0.0941
CC(=O)Nc1ccc(C(=O)OCCCOC(=O)c2ccc(NC(C)=O)cc2)cc1 | 5.65
CCCCOCCCn1c(N)c(C(=O)OC(C)COC)c2nc3ccccc3nc21 (centres unmarked) | -9.66
COc1cc(CN2CCC(C(=O)N3CCN(c4ccccc4F)CC3)CC2)cc(OC)c1O.O=C(O)C(=O)O | -3.74
O=C(NCc1nc2ccccc2[nH]1)C1=C[C@@H](C2CCCCC2)C[C@@H](OCc2ccc(CO)cc2)O1 | 2.48
O=C1C2CCCCN2C(=O)N1CCN1CCN(c2ccc([N+](=O)[O-])cc2)CC1 (centres unmarked) | -71.5
COc1c(C(=O)Nc2ccc3[nH]c(=O)[nH]c3c2)cc2ccccc2c1Br | 16.6
CCCc1cc(=O)[nH]c(SCC(=O)N2CCc3cc(OC)c(OC)cc3C2)n1 | -1.31
CC(C)c1nnc(NC(=O)CCC(=O)NCc2ccccc2Cl)s1 | 11.2
CN(C)CCCN(C(=O)c1ccc(S(=O)(=O)N2CCCC2)cc1)c1nc2c(F)cc(F)cc2s1.Cl | -44.3
COc1ccc(NC2CC(=O)N(CCc3ccccc3)C2=O)cc1 (centres unmarked) | -1.2
CSc1ccc(CCNC(=O)c2cc(-c3ccccc3)c(N3CCOCC3)s2)cc1 | -1.02
CCn1c(C)cc(/C=C2/NC(=O)N(CC(=O)Nc3cccc(C)c3)C2=O)c1C | -6.29
COCCn1cc(C(=O)NCc2cccs2)c2c3ccccc3n(C)c2c1=O | -10.5
CCN(CC(=O)Nc1ccc(NC(C)=O)cc1)C(=O)c1cccc2ccccc12 | 1.23
CC(Sc1nnnn1-c1ccc(Cl)cc1)C(=O)NCC(=O)Nc1ccc(F)c(F)c1F (centres unmarked) | 9.14
CCOc1ccc(NC(=O)/C(C#N)=C/c2ccc(N3CCCC3)c(C)c2)cc1 | 4.16
CC(=Nc1ccc(Br)cc1)c1sc2ccccc2c1O | 5.43
